This is an account of results in publication PMC4336329 (PLoS ONE, 2015).

Each structure is given as a SMILES string. Among all 310,000 compounds or so, about 14,000 (4.5%) showed an effect of 50% or more. Effects have a minus sign here. The list shows a part of the results.
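Note: peak tail current of the secondary pulse compared with the same well before compound.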

Sequence of human ether-à-go-go-related gene (hERG) potassium channel (Q12809 whole entry, looked up): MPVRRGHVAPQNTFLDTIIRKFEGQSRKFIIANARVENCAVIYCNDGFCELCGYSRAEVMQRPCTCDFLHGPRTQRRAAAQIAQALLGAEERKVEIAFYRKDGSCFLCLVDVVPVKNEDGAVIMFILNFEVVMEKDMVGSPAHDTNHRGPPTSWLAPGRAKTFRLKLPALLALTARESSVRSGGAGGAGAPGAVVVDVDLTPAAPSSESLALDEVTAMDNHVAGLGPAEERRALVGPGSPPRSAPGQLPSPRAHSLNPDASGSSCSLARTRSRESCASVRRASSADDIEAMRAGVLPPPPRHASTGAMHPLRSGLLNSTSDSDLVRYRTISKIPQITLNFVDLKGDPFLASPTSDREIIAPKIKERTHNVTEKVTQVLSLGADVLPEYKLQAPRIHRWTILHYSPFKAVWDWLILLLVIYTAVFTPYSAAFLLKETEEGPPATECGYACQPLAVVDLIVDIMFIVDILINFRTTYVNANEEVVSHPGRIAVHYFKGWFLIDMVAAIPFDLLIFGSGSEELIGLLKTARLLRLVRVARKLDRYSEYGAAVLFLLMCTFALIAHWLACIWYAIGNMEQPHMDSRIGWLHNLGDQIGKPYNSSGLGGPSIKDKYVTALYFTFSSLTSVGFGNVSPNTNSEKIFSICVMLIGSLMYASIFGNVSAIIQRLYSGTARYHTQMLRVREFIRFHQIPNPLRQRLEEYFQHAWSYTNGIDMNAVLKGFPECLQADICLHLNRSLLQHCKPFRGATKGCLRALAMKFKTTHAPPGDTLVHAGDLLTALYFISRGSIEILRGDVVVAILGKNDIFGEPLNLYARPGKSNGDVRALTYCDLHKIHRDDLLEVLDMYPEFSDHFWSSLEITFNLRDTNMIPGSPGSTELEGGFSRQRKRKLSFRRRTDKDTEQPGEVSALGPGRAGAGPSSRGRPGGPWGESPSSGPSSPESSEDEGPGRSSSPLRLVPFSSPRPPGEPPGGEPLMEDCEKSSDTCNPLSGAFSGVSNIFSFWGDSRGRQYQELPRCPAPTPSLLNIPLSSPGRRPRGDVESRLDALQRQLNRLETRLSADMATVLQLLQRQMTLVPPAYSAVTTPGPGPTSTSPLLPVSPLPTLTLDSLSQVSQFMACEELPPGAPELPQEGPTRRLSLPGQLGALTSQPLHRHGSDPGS

The experiment has as its target human ether-à-go-go-related gene (hERG) potassium channel (human, UniProt Q12809). The experiment can be described thus: primary screen, population patch clamp on CHO cells stably expressing hERG.
With `CCN(CC)S(=O)(=O)c1ccc(NC(=O)c2ccc(OCC3CCCO3)cc2)cc1` (stereo not shown), the “hERG current change (%, negative = inhibition) at 10uM” value is given as -7.56%. For `COc1ccccc1N=NC1C(=O)N(C(N)=S)N=C1C` (stereo not shown), the “hERG current change (%, negative = inhibition) at 10uM” value amounted to 14.1%. To `Cc1ccc(CNCCc2ccccc2F)cc1.Cl` belongs -31.8%; to `Cc1ccn2cc(CSc3ccccc3)nc2c1`, -3.72%.

For `CCOc1ccc(C(=O)N(Cc2ccc(OC)cc2)Cc2cc3cc(OC)ccc3[nH]c2=O)cc1`, the “hERG current change (%, negative = inhibition) at 10uM” value is -6.99%. To `Cc1cccc(OCC(=O)N/N=C/c2ccc(N(C)C)cc2)c1` belongs -6.97%; to `Nn1cc(-c2ccccc2)nc1SCC(=O)N1CCN(S(=O)(=O)c2ccc3ccccc3c2)CC1`, -17.2%. To `O=C(NCC(=O)N1CCCC1)c1ccccc1F` belongs 13.8%. To `CCC(C)Cn1c(C(C)C)nc2ccccc21` (stereo not shown) belongs -11.3%; to `CCOc1c(Cl)cc(CNC(C)(C)CC(C)(C)C)cc1OC.Cl`, -13.2%; to `O=C(NC(=S)NCCCN1CCOCC1)c1cccc2ccccc12`, 12.6%. In the case of `COc1ccc(C(=O)Nc2ccc(S(=O)(=O)Nc3cnc4ccccc4n3)cc2)cc1`, the “hERG current change (%, negative = inhibition) at 10uM” value turned out to be 6.26%. To `CC(C)n1cc(CN2CCC(C(=O)Nc3ccc(Oc4ccccc4F)cc3)CC2)cn1` belongs -76.1%; to `COc1ccc(-c2nnc(SCC(C)C)o2)cc1`, -24.5%. To `COc1ccc(N2CCC(CNC(=S)Nc3cccc(OC)c3)C2)cc1` (stereo not shown) belongs -2.4%; to `c1ccc2sc(NC3=NCN(C4CCCCC4)CN3)nc2c1`, -11%. For the molecule `CNc1nc(Nc2ccc(Br)cc2)nc(N)c1[N+](=O)[O-]`, the “hERG current change (%, negative = inhibition) at 10uM” value is recorded as 1.45%. As for `COC(=O)Cc1csc(N)n1.Cl`, the figure is 2.11%. As for `CCOc1ccccc1N(CC(=O)Nc1ccc(S(=O)(=O)N2CCOCC2)cc1)S(C)(=O)=O`, the figure is -20.3%; as for `O=C(COC(=O)c1n[nH]c2ccccc12)NCCc1ccc(Cl)cc1`, -3.3%. On to `O=C(NCCCn1ccnc1)c1cc(C(=O)C2CC2)c[nH]1`, for which the “hERG current change (%, negative = inhibition) at 10uM” value is listed as 5.65%. Take `O=C(CC1C(=O)NCCN1Cc1cccc(C(F)(F)F)c1)NCCc1cnccn1` (stereo not shown): the “hERG current change (%, negative = inhibition) at 10uM” value is 7.22%. As for `CCOC(=O)C1CCCN(C(=O)Cn2nc(C)c3c(C)n(-c4ccccc4)nc3c2=O)C1` (stereo not shown), the figure is 14.5%. To `CCCCCCNS(=O)(=O)c1ccc(OC)c(OC)c1` belongs -11%.

As for `Cc1cc2ncn(/N=C/c3cccnc3)c2cc1C`, the “hERG current change (%, negative = inhibition) at 10uM” value is -6.12%. To `CC1(c2ccccc2)CC(C)(C)N2C(=O)/C(=C3\SC(=S)NC3=O)c3cccc1c32` (stereo not shown) belongs -0.561%; to `COc1ccc(OC)c(Cc2nnc(CCC(=O)NC3C4CC5CC(C4)CC3C5)o2)c1` (stereo not shown), -12.7%; to `O=C(COc1ccc(Cl)cc1Cl)NNC(=O)c1cccnc1`, -5.31%. As for `Cn1ncc(Cl)c1C(=O)N1CCN(c2ccc(F)cc2)CC1`, the figure is 5.04%. Take `Br.O=C(CN1C2=NCCN2c2ccccc21)c1ccc2c(c1)OCO2`: the “hERG current change (%, negative = inhibition) at 10uM” value is -60.9%. Take `Cc1ccc(NS(=O)(=O)c2cccc(C(=O)NCc3ccccn3)c2)cc1`: the “hERG current change (%, negative = inhibition) at 10uM” value is reported as -68.5%. As for `N#Cc1cccc(S(=O)(=O)NCC(=O)OCC(=O)c2ccc[nH]2)c1`, the figure is 6.5%; as for `CS(=O)(=O)N1CCN(c2ccc(NC(=O)c3ccc(-c4ccc(Cl)cc4)o3)cc2)CC1`, -10.6%; as for `CCc1c(C)c2ccc(OCC(N)=O)cc2oc1=O`, -0.688%. For `O=C(Cc1ccsc1)NNC(=O)c1ccc(F)cc1`, the “hERG current change (%, negative = inhibition) at 10uM” value is recorded as -18.8%. As for `Cc1cc(=O)oc2cc(OCC(=O)N3C[C@H]4C[C@@H](C3)c3cccc(=O)n3C4)c(Cl)cc12`, the figure is 7.12%; as for `O=C(Nc1ccc(CSc2ccccc2)cc1)c1ccco1`, 8.8%; as for `CSCC[C@H](NC(=O)N1CCn2c1nc1ccccc12)C(=O)NCc1ccc(F)cc1`, -49.6%.

On to `CCCSC1=N/C(=C\c2ccc3c(c2)OCO3)C(=O)S1`, for which the “hERG current change (%, negative = inhibition) at 10uM” value was determined as 10.6%. As for `CC1Sc2ccc(S(=O)(=O)CCC(=O)N3CCN(c4ccccc4F)CC3)cc2NC1=O` (stereo not shown), the figure is 8.15%; as for `O=C1C2C3C=CC(C3)C2C(=O)N1c1ccccc1OS(=O)(=O)c1ccccc1` (stereo not shown), 3.59%. As for `CCn1cnc2c1c(=O)n(Cc1csc(-c3ccccc3)n1)c(=O)n2Cc1ccccc1`, the figure is -7.62%; as for `CCC(=O)Nc1c(-c2ccc(Cl)cc2)c(=O)c2ccccc2n1C`, 3.11%. To `O=C(NCc1ccc2c(c1)OCO2)C(c1ccco1)N(C(=O)c1csnn1)c1ccccc1` (stereo not shown) belongs -6.3%.

Turning to `CCOc1ccccc1C1NC(=O)NC(C)=C1C(=O)OC1CCCC1C` (stereo not shown), the “hERG current change (%, negative = inhibition) at 10uM” value was -8.61%. As for `O=C1OC(=O)c2c(Br)c(Br)c(Br)c(Br)c21`, the figure is 20.7%. As to `CC(NC(=O)OCc1ccccc1)C(=O)OCN1C(=O)c2ccccc2C1=O` (stereo not shown), the “hERG current change (%, negative = inhibition) at 10uM” value is recorded as 3.4%. As for `N#C/C(N)=C(/C#N)N=Cc1cccc(Cl)c1`, the figure is 4.99%; as for `C=CCN1C(=O)CSc2ccc(C(=O)NCc3ccc(F)cc3)cc21`, -21.3%; as for `O=C(O)c1cc(N/N=C2/CC(c3ccccc3)Oc3ccccc32)ccc1Cl` (stereo not shown), -2.45%. On to `Cn1c(-c2ccccc2O)cc2ccccc21`, for which the “hERG current change (%, negative = inhibition) at 10uM” value is -1.56%.

As for `COc1cccc(NC2CC(=O)N(CCc3ccccc3)C2=O)c1` (stereo not shown), the “hERG current change (%, negative = inhibition) at 10uM” value was -1.13%. To `OC1NC(=S)N(c2ccccc2)C1O` (stereo not shown) belongs 8.96%; to `S=c1[nH]nc(-c2cccnc2)n1-c1ccccc1`, 22.9%.

With `CCc1nnc(NC(=O)CSc2nnc(-c3ccc(OC)cc3)n2C)s1`, the “hERG current change (%, negative = inhibition) at 10uM” value is reported as 10.5%.

As for `O=C1CN(C(=O)COC(=O)c2ccccc2NCc2ccco2)c2ccccc2N1`, the “hERG current change (%, negative = inhibition) at 10uM” value is recorded as -2.84%.

For the molecule `O=C(Nc1ccnn1C1CCN(C(=O)c2cc(Cl)ccc2F)CC1)C1CCOC1` (stereo not shown), the “hERG current change (%, negative = inhibition) at 10uM” value turned out to be 23.6%. As for `COC(=O)c1ccc(NC(=S)Nc2ccccn2)cc1`, the figure is 22.9%.

Turning to `Cc1cccc(NC(=O)c2ccccc2NC(=O)Cc2ccccc2)c1C`, the “hERG current change (%, negative = inhibition) at 10uM” value was found to be 4.93%. On to `CCc1ccc(N2CC(C(=O)NC3CC3)CC2=O)cc1` (stereo not shown), for which the “hERG current change (%, negative = inhibition) at 10uM” value was found to be 14.2%.

`Cc1cc(N2CCN(C(=O)c3ccco3)CC2)n2nc(C)nc2n1`: the “hERG current change (%, negative = inhibition) at 10uM” value is -44%. For the molecule `CCN(C(=O)CSc1nnc(-c2cccs2)n1N)c1c(N)n(Cc2ccccc2)c(=O)[nH]c1=O`, the “hERG current change (%, negative = inhibition) at 10uM” value is 0.193%. Take `CCn1c(COC(=O)CNC(=O)c2ccccc2F)nc2cc(S(=O)(=O)N(C)C)ccc21`: the “hERG current change (%, negative = inhibition) at 10uM” value was -14.8%.

`Cc1ccccc1-n1c(C)cc(/C=N/NC(=O)c2ccncc2)c1C`: the “hERG current change (%, negative = inhibition) at 10uM” value was -3.05%. To `Cc1ccc(OCCCC(=O)N(C)CC(=O)Nc2ccccc2Br)cc1` belongs -23.5%; to `CCNS(=O)(=O)c1ccc2nc(NC(=O)c3cccnc3)sc2c1`, -1.78%; to `Cc1cccc(NC(=O)NC2CCCc3ccccc32)c1` (stereo not shown), 14.5%. As for `c1ccc(-c2nc3ccccc3c3nncn23)cc1`, the figure is 0.662%; as for `CC(C)C(=O)NC(=S)Nc1ccccc1C(=O)Nc1ccccc1`, 16.6%. As for `NS(=O)(=O)c1ccc(S(=O)(=O)N2CCCC2)cc1`, the figure is 6.7%; as for `C[C@@H](O)CC(=O)[O-].[Na+]`, -6.57%; as for `Cc1ccc(C)c(SCC(=O)NC(=O)NC2CCCC2)c1`, -12.3%. On to `CC(=O)c1ccc(NC(=O)CSc2nc(=O)n(CCN3CCOCC3)c3c2CCC3)cc1`, for which the “hERG current change (%, negative = inhibition) at 10uM” value is on record as -7.74%. To `O=C1c2ccsc2SCCN1Cc1cccc(Cl)c1` belongs -12.2%; to `O=C(NNC(=O)c1ccc(S(=O)(=O)N2CCCCC2)cc1)c1ccccc1`, 8.54%; to `Cc1cccc(C)c1OCC(=O)Nc1ncn[nH]1`, 18.2%. As for `Cl.Oc1ccccc1CNCC12CC3CC(CC(C3)C1)C2`, the figure is -5.56%; as for `O=C1CNC(=O)N1`, 13.6%. As for `Cc1ccc2[nH]c(O)c(N=Nc3nc4ccccc4s3)c2c1`, the figure is -4.7%; as for `CCc1ccccc1NC1c2ccccc2C(=O)N1c1cc(C)ccn1` (stereo not shown), -1.18%. In the case of `CCOC(=O)C1(Cc2cccc(OC)c2)CCN(CC2CC=CCC2)CC1` (stereo not shown), the “hERG current change (%, negative = inhibition) at 10uM” value was -71.7%.

As for `O=C(NC1CCCc2c1cnn2-c1cc(F)cc(F)c1)c1cc[n+]([O-])cc1` (stereo not shown), the “hERG current change (%, negative = inhibition) at 10uM” value was -37.1%. In the case of `CCOc1ncccc1C(=O)NNC(=O)c1ccc(NS(=O)(=O)c2cccs2)cc1`, the “hERG current change (%, negative = inhibition) at 10uM” value is listed as 13%.

In the case of `Cc1nccn1CC(=O)N/N=C/c1ccccc1O`, the “hERG current change (%, negative = inhibition) at 10uM” value is reported as -10.2%.

`COc1cccc(-c2c(C(=O)N/N=C(\C)COc3ccccc3)nnn2-c2nonc2N)c1`: the “hERG current change (%, negative = inhibition) at 10uM” value is reported as -27.2%. To `ClC1CCCCC1n1nnc2ccccc21` (stereo not shown) belongs 10.2%; to `CCOC(=O)N1CCN(C(=O)CSCC(=O)Nc2nc(-c3ccc(C)cc3)cs2)CC1`, -14.1%; to `COc1ccc(S(=O)(=O)Nc2ccc(-c3ccc4nnc(C)n4n3)cc2)c(OC)c1`, 10.2%.

As to `Cn1c(=O)n(Cc2ccccc2)c(=O)c2c1nc1n2CCCN1Cc1ccccc1`, the “hERG current change (%, negative = inhibition) at 10uM” value is on record as -31.1%. Consider `Cc1ccccc1CC(=O)N(CCN(C)C)CC1CCCN(Cc2ccccc2F)C1` (stereo not shown), for which the “hERG current change (%, negative = inhibition) at 10uM” value was 1.19%.

With `Cc1cc(NC(=O)CCC(=O)N(c2ccccc2)C(C(=O)NCC2CCCO2)c2cccnc2)no1` (stereo not shown), the “hERG current change (%, negative = inhibition) at 10uM” value was -3.41%.
